In ChEMBL document CHEMBL4888484, “Replenishing the malaria drug discovery pipeline: Screening and hit evaluation of the MMV Hit Generation Library 1 (HGL1) against asexual blood stage Plasmodium falciparum ,using a nano luciferase reporter read-out” (2022):
Out of some 150,000 compounds screened, about 540 (0.36%) showed an effect of 50% or more. Some of the results follow.

Each compound was assayed on Plasmodium falciparum (assay: Primary screen in NF54 nanoGlo assay, in single point, at 2uM, 72h; a lower Z score goes with more inhibition). Details: timepoint 72 hour.
Format: functional, Erythrocyte
In the case of CCn1c(=O)c(N2CCN(C(=O)Cc3ccc(OC)c(Cl)c3)CC2)nc2ccncc21, the “% Inhibition” value is reported as -13% and the Z score is reported as 1.25. In the case of COc1ccc(-c2[nH]ncc2C(=O)NC[C@@H]2CCCN3CCCC[C@H]23)cc1Cl, the “% Inhibition” value is reported as -15% and the Z score is reported as 1.86. For Cc1cc(F)ccc1[C@H]1C(=O)NCCN1CCc1scnc1C, the “% Inhibition” value was -9% and the Z score was 1.57. In the case of C#CCN(Cc1nc(C)ccc1O)CC1CC1, the “% Inhibition” value is reported as -10% and the Z score is reported as 1.27. With CCc1ccc(NC(=O)C2c3ccccc3C(=O)N(CCOC)C2c2cn(S(=O)(=O)c3ccccc3)c3ccccc23)cc1 (stereo not drawn) the “% Inhibition” value was 7% and the Z score was -0.88. For CN(CC=Cc1ccc(Br)cc1)CCO, the “% Inhibition” value was -2% and the Z score was 0.23. In the case of CN1CCC[C@@](O)(CN2CCN(Cc3ccc4c(c3)OCO4)C(=O)C2)C1=O, the “% Inhibition” value is reported as -13% and the Z score is reported as 2.01. In the case of CC(C)N1C(=O)C[C@H](NC(=O)C(=O)Nc2cc(-c3ccncc3)nn2C)C1=O, the “% Inhibition” value is reported as -8% and the Z score is reported as 1.32. With C[C@H](NC(=O)C1CCC1c1ccc(F)cc1)C(=O)N1Cc2ccccc2C1 (stereo partly drawn) the “% Inhibition” value was 1% and the Z score was -0.15. For CCc1noc(C)c1NC(=O)NC1CN(Cc2ccccc2)CC1C (stereo not drawn), the “% Inhibition” value was -13% and the Z score was 1.16. In the case of O=C(CCC1CCC1)Nc1cnccn1, the “% Inhibition” value is reported as -9% and the Z score is reported as 1.71. For COCC1(NC(=O)c2ccc(-c3ncon3)cc2)CCOCC1, the “% Inhibition” value was 5% and the Z score was -0.9. In the case of N#Cc1c(F)cccc1N1CCCN(c2cccc(F)c2C#N)CC1, the “% Inhibition” value is reported as 2% and the Z score is reported as -0.24. In the case of COCCNC(=O)NCC[C@H](O)c1cccc(Cl)c1, the “% Inhibition” value is reported as -5% and the Z score is reported as 0.9. CS(=O)(=O)c1ccc(OC[C@@]2(CNS(=O)(=O)c3ccc(F)cc3)C[C@@H](O)[C@@H](O)C2)cc1 was tested, and the “% Inhibition” value was -10% and the Z score was 1.55. With CCCc1nc(CNC(=O)[C@H]2CCOc3ccccc3C2)cs1 the “% Inhibition” value was -9% and the Z score was 1.2. For C[C@@H]1CN(C(=O)OC(C)(C)C)C[C@H](C)N1Cc1ccc(C(=O)N(C)C)[nH]1, the “% Inhibition” value was -1% and the Z score was 0.14. CN(C)CCN(C(=O)[C@H]1CCn2ccnc2C1)C1CCCC1 was tested, and the “% Inhibition” value was -5% and the Z score was 0.7. With CCN1CC[C@@]2(CCC1=O)CN(c1nc(-c3ccccc3)no1)CCN2C the “% Inhibition” value was -5% and the Z score was 1.01. With CC(=O)N1CCN(C(=O)[C@@H]2CC(=O)c3sc(NC(=O)CCC4CCCCC4)nc3C2)CC1 the “% Inhibition” value was -16% and the Z score was 2.2. For CC(=O)NC1C2CCCN(c3ncc(Cl)s3)C2C1(C)C (stereo not drawn), the “% Inhibition” value was -3% and the Z score was 0.46. Cc1ncsc1CCc1nc(CC(N)=O)nn1CC(C)(C)O was tested, and the “% Inhibition” value was -14% and the Z score was 1.19. In the case of Cc1csc(NC(=O)[C@]2(C)Oc3ccccc3NC2=O)n1, the “% Inhibition” value is reported as 36% and the Z score is reported as -1.34. For Cc1cc(C(=O)N[C@H]2CCN(c3nccn4cnnc34)C2)c(C)o1, the “% Inhibition” value was 6% and the Z score was -0.74. In the case of CC(=O)CN1C(=O)[C@@H]2CCCN2C(=O)c2ccccc21, the “% Inhibition” value is reported as -15% and the Z score is reported as 1.87. With Cc1cccc(C2CCCN(C(=O)CC3(c4ccccc4F)CC(=O)N(C)C3=O)C2)c1 (stereo not drawn) the “% Inhibition” value was -1% and the Z score was 0.19. For Cc1cc(F)ccc1CNCc1cc(CC(C)C)no1, the “% Inhibition” value was -12% and the Z score was 1.56. For Cc1cc(=O)c(C(=O)O)c(CCc2ccccc2)n1C[C@H]1CCCO1, the “% Inhibition” value was 7% and the Z score was -0.84. With CC(=O)c1ncn(Cc2nc(-c3ccccc3Cl)oc2C)n1 the “% Inhibition” value was 5% and the Z score was -0.44. CCOc1ccc([C@@H]2C=C(c3cccnc3)Nc3nnnn32)cc1OC was tested, and the “% Inhibition” value was -9% and the Z score was 1.43. In the case of CCCN1CCC[C@H]1CNC(=O)c1nc(C)sc1Br, the “% Inhibition” value is reported as -4% and the Z score is reported as 0.5. CC(=O)N1CCC(CN(C)C(=O)NC(C)c2cc(C)c(F)c(C)c2)C1 (stereo not drawn) was tested, and the “% Inhibition” value was 38% and the Z score was -3.44. For Cc1oc(C(C)C)cc1C(=O)N[C@H]1CCOC[C@@H]1OCC1CC1, the “% Inhibition” value was -5% and the Z score was 0.96. For CC[C@H](OC)c1nc(Cc2ccc(OC)cc2)nn1CC(C)(C)O, the “% Inhibition” value was -3% and the Z score was 0.54. With CC(C)(C#N)NC(=O)Cc1ccn(-c2ccccc2)n1 the “% Inhibition” value was 1% and the Z score was -0.11. O=C(Nc1ccc(F)cc1)c1nc(-c2cn(-c3ccc(F)cc3)nn2)no1 was tested, and the “% Inhibition” value was -1% and the Z score was 0.21. In the case of Cc1ccc(-c2ccc(C(=O)N3[C@@H]4CC[C@H]3C[C@@H](O)C4)cc2)o1, the “% Inhibition” value is reported as -12% and the Z score is reported as 1.77. COc1ccc(Nc2cc(N[C@@H](CO)c3cnn(C)c3)ncn2)c(OC)c1 was tested, and the “% Inhibition” value was -13% and the Z score was 1.7. In the case of CCC1(NC(=O)c2cc(-c3ccn(C)n3)on2)CCC1, the “% Inhibition” value is reported as -18% and the Z score is reported as 2.37. CN(CC(=O)NC1CCCCCCC1)Cc1cc[nH]n1 was tested, and the “% Inhibition” value was 0% and the Z score was -0.03. In the case of C[C@H](OC(=O)CNC(=O)OC(C)(C)C)C(=O)N1CCCCCC1, the “% Inhibition” value is reported as -12% and the Z score is reported as 1.29. For CC(C)CN(CC(=O)N[C@](C)(C#N)C1CC1)C1CC1, the “% Inhibition” value was -16% and the Z score was 2.11. With COc1ccc(C(=O)N(CC(=O)N2CCc3sccc3[C@@H]2COc2ccc(C)cc2C)C(C)(C)C)cc1 the “% Inhibition” value was -10% and the Z score was 1.01. O=C(CC[C@@H]1NC(=O)N(Cc2ccccc2Cl)C1=O)NC1CCS(=O)(=O)C1 (stereo partly drawn) was tested, and the “% Inhibition” value was -3% and the Z score was 0.49. In the case of CC[C@H](OC)c1nc(CCOC)nn1CC(=O)O, the “% Inhibition” value is reported as -2% and the Z score is reported as 0.22. With COc1ccc(-c2nn3c(NCc4ccccc4)cc(C)nc3c2C)cc1OC the “% Inhibition” value was -12% and the Z score was 2.33. For CCC(=O)N1CCN(C(=O)CC[C@H]2CCC(=O)N2)C1, the “% Inhibition” value was -8% and the Z score was 0.81. Cc1ncsc1CCC(=O)N(Cc1ccccc1)[C@H]1CCCC[C@@H]1O was tested, and the “% Inhibition” value was -9% and the Z score was 1.23. In the case of NS(=O)(=O)c1ccccc1Cc1ccc(-n2cccn2)cc1, the “% Inhibition” value is reported as -7% and the Z score is reported as 1.28. O=C(Nc1cnccc1O)c1cnccn1 was tested, and the “% Inhibition” value was 3% and the Z score was -0.42. In the case of CS(=O)(=O)N1C[C@@H](CC(=O)O)[C@@H](c2c[nH]nn2)C1, the “% Inhibition” value is reported as -5% and the Z score is reported as 0.95. For C[C@H]1CCc2c(sc(=O)n2CN(C)Cc2cccc(C#N)c2)C1, the “% Inhibition” value was -11% and the Z score was 1.09. With Cc1noc(C)c1CON=C(N)c1ccc(N(C)C)cc1 the “% Inhibition” value was 2% and the Z score was -0.21. COc1ccc(Cl)cc1CN1CCN(CCC2OCCO2)CC1 was tested, and the “% Inhibition” value was -7% and the Z score was 0.94. In the case of O=C(CCc1ccno1)NC1(CN2CCOCC2)CCCC1, the “% Inhibition” value is reported as -2% and the Z score is reported as 0.28. In the case of O=C(CN1C(=O)CCn2nc(-c3cccc(Cl)c3)cc21)N1CCN(C(=O)c2ccco2)CC1, the “% Inhibition” value is reported as 5% and the Z score is reported as -0.55. With O=S(=O)(CC[C@H]1CCCCO1)NCC#Cc1cccnc1 the “% Inhibition” value was -4% and the Z score was 0.7. CNC(=O)c1nc(-c2cccc(-c3ccccc3)c2)n[nH]1 was tested, and the “% Inhibition” value was 0% and the Z score was 0.01. For CCN1CCNC(=O)[C@@H]1CC(=O)Nc1ccc(-c2cn3ccc(C)cc3n2)cc1, the “% Inhibition” value was -2% and the Z score was 0.41. With Cc1ccc(OCc2cc(C(=O)NCc3n[nH]c(=O)[nH]3)oc2C)cc1 the “% Inhibition” value was 2% and the Z score was -0.31. In the case of CC(C)[C@H](CNC(=O)NCc1cccnc1)N1CCN(C)CC1, the “% Inhibition” value is reported as -5% and the Z score is reported as 0.61. For CCCN1CCC[C@H](NC(=O)N(C)Cc2nc(-c3cccnc3)no2)C1, the “% Inhibition” value was -2% and the Z score was 0.34. For O=C(Nc1cc(C2CC2)nn1C1CCS(=O)(=O)C1)C1CC=CCC1 (stereo not drawn), the “% Inhibition” value was -11% and the Z score was 2.12. O=C(c1ncoc1C1CC1)N(CCCn1ccnc1)Cc1cccnc1 was tested, and the “% Inhibition” value was -1% and the Z score was 0.18. For Cc1ccsc1S(=O)(=O)N1C[C@H]2C[C@H](O)[C@@H](O)C[C@H]2C1, the “% Inhibition” value was -6% and the Z score was 1.28. With O=C(Cn1nnc(-c2ccc3c(c2)OCO3)n1)Nc1cccc(Br)c1 the “% Inhibition” value was 0% and the Z score was -0.01. For C=CCC[C@H](O)CN1CCN(c2nc(-c3ccccc3)nc(CC)c2Cc2ccccc2F)CC1, the “% Inhibition” value was 1% and the Z score was -0.09. For CCCN(CCc1cccc(F)c1)C(=O)CCc1c(C)noc1C, the “% Inhibition” value was -7% and the Z score was 1.31. Cc1nn(C)cc1CN1CCC2(CCC(=O)N([C@H]3CC[C@H](O)CC3)C2)CC1 was tested, and the “% Inhibition” value was -6% and the Z score was 0.64. In the case of O=C(NCc1nc(-c2ccc[nH]c2=O)no1)c1cnc[nH]1, the “% Inhibition” value is reported as -13% and the Z score is reported as 2.26. For CCCCn1cc(CNC(=O)N2CC[C@H](CC)C2)c(C)n1, the “% Inhibition” value was -2% and the Z score was 0.43. With N#Cc1cc(F)ccc1NCCOCC1CC1 the “% Inhibition” value was 0% and the Z score was 0.06. Cc1ccccc1C1CC(Nc2ccc(N3C(=O)CCCC3=O)cc2)C1 (stereo not drawn) was tested, and the “% Inhibition” value was -7% and the Z score was 0.71. COCCN(C)C[C@H]1C[C@H](CO)CN(Cc2ccc(F)c(F)c2)C1 was tested, and the “% Inhibition” value was -16% and the Z score was 2.37. In the case of COc1ccc(C2=NS(=O)(=O)N(C)C(C(=O)N3CCCC[C@@H]3C)=C2)cc1OC, the “% Inhibition” value is reported as -9% and the Z score is reported as 1.65. C[C@@H](C1CC1)N(C)C(=O)c1cnn(C)c1 was tested, and the “% Inhibition” value was -6% and the Z score was 1.1. With O=C(c1ccc2cc[nH]c2c1)N1CCCC[C@@H]1CCN1CCCC1 the “% Inhibition” value was -6% and the Z score was 1.09. Cc1c(CNC(=O)NCc2cn(C)cn2)oc2ccccc12 was tested, and the “% Inhibition” value was -1% and the Z score was 0.1. For CN(c1ccsc1)[C@H]1CCCNC1=O, the “% Inhibition” value was 7% and the Z score was -0.68. With COC(=O)c1ccc(C(=O)N2C3CCC2CC(Oc2cccnc2)C3)cc1 (stereo not drawn) the “% Inhibition” value was -4% and the Z score was 0.59. Cc1cc(C)c2ccc3c(C)c(C)[nH]c3c2n1 was tested, and the “% Inhibition” value was -2% and the Z score was 0.38. With CC(C)C1OCCC1CNC(=O)CC1C=CCC1 (stereo not drawn) the “% Inhibition” value was -9% and the Z score was 1.48. CC1(C)NC(=O)N(Cc2coc(-c3ccc(F)cc3)n2)C1=O was tested, and the “% Inhibition” value was -10% and the Z score was 1.17. In the case of CN(Cc1ccccc1)C(=O)[C@H]1O[C@H](CCN2CCN(Cc3ccccc3)CC2)CC[C@@H]1O, the “% Inhibition” value is reported as -8% and the Z score is reported as 1.27.
